From the supplement of paper PMC11417369
This is one part of the list.

tested on: PfSIP2 AP2 domain 1 (GST-tagged); test: gcPBM binding intensity (ln(normalized median fluorescence intensity)); higher = stronger DNA binding
How it was run: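 Each value is the highest Masliner-normalised natural-log median intensity across replicate spots of either orientation of a probe. The probes were primer-extended double-stranded 36-bp intergenic genomic sequences on an Agilent 4 × 180k array, alongside negative controls, exposed for 1 h to GST-tagged P. falciparum DNA-binding domains expressed in E. coli. Bound protein was picked up with Alexa488 anti-GST antibody and scanned at 488 nm.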

Sequence	gcPBM binding intensity (ln)
ATAATGTGTTAGGCGTGTACACAATTGTATGGTTTA [XGTACX_site2377]	7.42
AAATAAAATCATAATGTGCGCATATAAATTTGTAGG [GTGCAC_site9662]	7.63
ATATATATATATGAAAGTACACATCTATTTTTTCTT [XGTACX_site6059]	9.32
AAGGTAGATATATTTAGTACGTAATTTTTTTTTTTT [XGTACX_site7288]	6.87
GTAAAAAAAGAGCACACACACAAAAACACCCACAAA [CACACA_site1292]	7.34
TTTATTCCCGCATATAGTACATATACCATTTAATGT [XGTACX_site7011]	7.16
AATATTTAAGTACTGGTGCGTGTATATAATGATTAA [GTGCAC_site9633]	8.44
ATAAATAAAATATGCACACAAATATAGGAAACAACA [CACACA_site2561]	8.26
AAACTTGTAAGAAACACACACACACGCATATAAATA [CACACA_site6518]	6.98
CATAAATACACTGTAGCGCACACGGCCAAAAAAAAA [CACACA_site8537]	7.16
ATATAATATGGTATTACACACTGTTATAAGTATGGC [CACACA_site2094]	6.93
TTAAATAAAATTTATTGTACATAAAATTAAATATAG [XGTACX_site3039]	7.09
CATAATTTACATAAAAGTACATATATATTAATGACG [XGTACX_site6247]	7.02
AGAAGCATACATCAAGCACACACACCCACACCCACA [CACACA_site8014]	6.9
TCCTTTTCTTAATTTAAAAAATATAAAAAAAACGAA [CACACA_negctrl_site1821]	7.19
ACACGTTTATATAAAAAATTAAAATTTTTCTTATTT [CACACA_negctrl_site1523]	7.21
ATAACAAAATAAAACACACACACAAATGTACAGATA [CACACA_site5358]	7.06
ATTTTTGTGTTTACACGTACGTGTAAATTATTTTTC [XGTACX_site1869]	6.96
TATTCATGTTTAAAAAGTACATATTATGGTAACATT [XGTACX_site4533]	7.06
AAAAGGGATAAATGTGCGCACATGTTATATATATAT [GTGCAC_site9534]	9.41
ACATATCTACACAGTGGTACTTCCATTAATATATAC [XGTACX_site3827]	7.24
TCATAAATTAAACAAACACACACGTTCTTTTATTTA [CACACA_site713]	6.87

Sequence	gcPBM binding intensity (ln)
ATTTATTCAAATGGTTGTACTACAAATAAACATTAT [XGTACX_site3378]	7.15
AACAATGTTGTACATACACACACACTAATAAAAAAT [CACACA_site8758]	7.22
AATACATACAGACACACACACACATATAAATAAATA [CACACA_site7642]	7.37
GCTCATTGAAGTTATACACACCAAATATGTAAATAT [CACACA_site7217]	7.08
TATAATATTAATGACTGTACTCATACGTATATTTAT [XGTACX_site5493]	7.03
TTTAATTTATATTTTGTGCACATCTTATTATATATA [GTGCAC_site9630]	9.58
AATTTTGTTTAGCACACACACATACATACATACATA [CACACA_site5707]	7.34
CCCATTTTGACAAAAAGTACAAGTTCAGGTTTTATA [XGTACX_site1532]	6.93
AAAAATTAAAATATTATAGTTGAAACTTTTATAAAT [TGCATGCA_negctrl_site454]	6.55
TTTCTCTTCTAAACATGTACAAAAATACATACATAT [XGTACX_site1365]	7.39
TATATTTATTCCTGTTGTACTTTATATTATTTTTTT [XGTACX_site1415]	7.17
ATATATATATATATATGTACATACATACATAGAACT [XGTACX_site2214]	9.69
TCCCATTTATTATGGTGTACAATTAATTAAACATAA [XGTACX_site750]	7.16
ACATATTAATTATTATGACATACATATCAGTTATTA [TGCATGCA_negctrl_site126]	6.92
TATATTATTTTATATTGTACATACCAAATATTATAT [XGTACX_site1693]	7.11
CATGTGATAATGATTAGTACATAAACAAAAATATAT [XGTACX_site5866]	7.09
AGAAAAATAAACAAATGTACAAATTATTACTATATA [XGTACX_site1087]	6.8
TAAAATATAGAAAATTTTATTAAATATAAAAAAATA [CACACA_negctrl_site1441]	6.61
ATTAAATAAAAAAACACACACATATATACATATATA [CACACA_site3445]	6.88
CATAATAATAGAAACACACACACATAGACATATATA [CACACA_site1308]	7.05
CATATATAACCTATAGCACACATATATAATATATAT [CACACA_site8544]	7.34
TTATATAAACACCAACGTACGTTCATTTAACATAAC [XGTACX_site5250]	7.19

Sequence	gcPBM binding intensity (ln)
TATATATATATATATTGTACATATGTGGTATAAATG [XGTACX_site6108]	9.24
GCATATCTATTTTCACGTACACAAACATGTATATAT [XGTACX_site3722]	7.53
ATATTACATATGTGCTGTACGCAATATATTATATCT [XGTACX_site1520]	7.04
AAGAACTTTAATAAGTGTACATTTATTGGAAACATG [XGTACX_site2995]	7.08
ATAATTACATAGATTGGTACACATTTTTGATTGTAT [XGTACX_site3802]	7
TTAAAAATGTGTGTGCGTACATAATATTTCGAAAAA [XGTACX_site8197]	7.03
GTACAAATGATTAATCCTTTACTTATATATATATAT [XGTACX_negctrl_site138]	9.37
CATTTTTTTTTATAAATACACACGTACGGGTGCATA [CACACA_site1569]	10.9
TTCTGGCAAAATAACACACACATATATTTTATATAC [CACACA_site3242]	7.92
TTCTTAAAAAAAAATAAAATAAAAAAAAAAATAAAA [CACACA_negctrl_site99]	6.68
GAACATTTACGCCCCACACACCTACCAACAAAAAAA [CACACA_site7746]	7.74
TTTTTCATATGACACACACACAAAAATAATGTGGAA [CACACA_site7692]	6.99
AAATGAACACGAAAGGAAAAAAAAATATATATATAT [CACACA_negctrl_site267]	9.21
TCATTTTATTATTCTACACACTTATCTATAATTATA [CACACA_site34]	7.2
ATTTGCAGTATTTCGGAACACACAAACATAAATATG [CACACA_site8726]	6.95
TATAAAAAATTCTTCCTTATTTTATGATATATATAT [TGCATGCA_negctrl_site57]	8.4
TATTCCTATAAAAAAACACACACATATAAATATATA [CACACA_site8727]	6.95
AAATATATTTCACGCACACACACCCCAAATAAATTT [CACACA_site3820]	7.32
ATATTTCAAAATGAAAGTACATATAAAAATTATACA [XGTACX_site3787]	6.93
AAGTATTTTTTTACATGTACATATATATATATATAT [XGTACX_site5065]	9.81
AAATAGATAAGTAGGACACACATATATATATATTAA [CACACA_site1862]	6.96
CAAAAACATACCTACACACACAATATGTATTTATAA [CACACA_site5862]	6.97

Sequence	gcPBM binding intensity (ln)
AAATGAATATTCATAGTGCAATATATAAATGAAAAT	7.94
TTTAATTATTAGTGTGCACACAACTATGAGTTTTTA [CACACA_site8997]	8.35
AATTACATTCAATTCTGTACTAATAGTAATTCAAAA [XGTACX_site7419]	7.12
GAGAAAAATAAATACACACACATAAATAAATACATA [CACACA_site5102]	6.97
TATGTATATTTTAATTGTACGTGTATGGTTGTAAAT [XGTACX_site8738]	7.36
TTTTTTTTTTCATTAACACACATAAATATATATATA [CACACA_site5759]	8.41
TGATTAATAATTTTCTTCATACATTAAACATCTTTT [TGCATGCA_negctrl_site342]	6.82
CACTAATAGTGGATTACACACATATATCTGTATTTA [CACACA_site5403]	6.94
TTAATGTTATATGTGTGTACATATAAGTTTAGTAAA [XGTACX_site4651]	7.09
GACATAAAATTCAAAGTGCATAAATAAAATAAACCC	8.81
TTTTTTTTTTTTTTCTGTACAAATTAAATCTACATA [XGTACX_site8285]	6.96
ATATTTAAAAAATGATGTACAAAAATGTAGTCACAC [XGTACX_site6208]	7.24
GAAATTAAATGACATACACACTATATTATAGATTTT [CACACA_site7468]	6.73
TATTTTAATGAATTCACACATATAATTTATTTTATA [CACACA_site4538]	6.84
ATAGTATCTGGTAGCTGTACGAGTCGTAGAGTGTAA [XGTACX_site4936]	7.16
ATATAAAACTAATTTCTTTTTCTCCTTTTATTTTGT [CACACA_negctrl_site1251]	6.99
AATATATATTAATAAAGTACAGGAAATATTTTTACC [XGTACX_site7052]	7.33
AAAATACATAGACACACACACACACGGATATAAATA [CACACA_site7643]	7.03
ATATATATATATAAATGTACAGATATATTTTTTATT [XGTACX_site5445]	9.42
TTTAATTTGATAGACACATGCACACGTGCAATACTT [TGCATGCA_site777]	9.11
TACTAAAAAATATAAACACACATATATTTTACATAT [CACACA_site2042]	6.98
TTTGTAAGAAATAAATGTACAAAAATTAATTTTTAT [XGTACX_site8983]	6.84
